Test [1] concerns the target T1, FLAG-PTP1B D181A-Y46F substrate trapping mutant (full-length) (UniProt P18031).
T1 sequence: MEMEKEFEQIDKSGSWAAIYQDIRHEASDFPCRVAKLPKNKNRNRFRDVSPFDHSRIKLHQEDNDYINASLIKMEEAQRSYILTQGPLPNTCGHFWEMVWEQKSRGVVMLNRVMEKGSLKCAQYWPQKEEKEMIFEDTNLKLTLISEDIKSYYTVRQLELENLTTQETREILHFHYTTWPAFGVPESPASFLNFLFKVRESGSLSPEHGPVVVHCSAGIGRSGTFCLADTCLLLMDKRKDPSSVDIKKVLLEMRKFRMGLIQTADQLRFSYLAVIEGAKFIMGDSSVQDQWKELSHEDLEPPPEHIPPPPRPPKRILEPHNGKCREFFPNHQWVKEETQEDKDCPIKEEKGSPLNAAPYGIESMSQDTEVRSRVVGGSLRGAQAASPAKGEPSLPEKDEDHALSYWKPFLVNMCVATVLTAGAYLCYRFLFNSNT
Put plainly: condition: only with 1 mM orthovanadate in the lysis buffer; co-IP; as the anti-FLAG co-IP, but cells lysed in the presence of 1 mM orthovanadate, which competes for binding at the catalytic centre; immunoblot.

The target in test [2] is T2, FLAG-PTP1B D181A-Y46F Δ406-435 (truncated trapping mutant without the ER-targeting domain) (UniProt P18031).
T2 sequence: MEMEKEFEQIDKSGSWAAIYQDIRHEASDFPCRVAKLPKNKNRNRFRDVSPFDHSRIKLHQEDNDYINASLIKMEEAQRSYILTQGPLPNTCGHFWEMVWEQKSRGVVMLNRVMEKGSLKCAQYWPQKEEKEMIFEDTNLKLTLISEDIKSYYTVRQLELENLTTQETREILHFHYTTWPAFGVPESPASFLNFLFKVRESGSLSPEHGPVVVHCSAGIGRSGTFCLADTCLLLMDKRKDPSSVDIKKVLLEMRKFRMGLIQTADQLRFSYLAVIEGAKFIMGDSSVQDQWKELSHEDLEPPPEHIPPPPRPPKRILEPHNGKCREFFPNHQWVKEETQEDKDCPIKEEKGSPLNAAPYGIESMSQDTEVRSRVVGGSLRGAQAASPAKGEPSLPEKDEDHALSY
The test is described as follows: co-IP; anti-FLAG M2 magnetic beads, lysates of PTP1B KO Ramos cells with inducible FLAG-PTP1B WT or trapping mutants; lysis buffer 50 mM Tris-HCl pH 8.5, 137.5 mM NaCl, 1 mM EDTA, 1% Triton X-100; 2-4 h at 8°C; immunoblot of endogenous partners; no orthovanadate. On the technique in general: In western blotting, separated proteins are transferred to a membrane and probed.

The target in test [3] is T1, FLAG-PTP1B D181A-Y46F substrate trapping mutant (full-length). Described as above.

Results are given in words; binding and its absence hold for the method and conditions named. In cells and extracts the contact can be indirect. Some results given as binding are weak or reduced against the parent protein; the word gives no strength. Tags and fused reporters may be left off the sequences shown.

B1: PLCγ2 (enzyme, UniProt P16885 1-1265)
chain: MSTTVNVDSLAEYEKSQIKRALELGTVMTVFSFRKSTPERRTVQVIMETRQVAWSKTADKIEGFLDIMEIKEIRPGKNSKDFERAKAVRQKEDCCFTILYGTQFVLSTLSLAADSKEDAVNWLSGLKILHQEAMNASTPTIIESWLRKQIYSVDQTRRNSISLRELKTILPLINFKVSSAKFLKDKFVEIGAHKDELSFEQFHLFYKKLMFEQQKSILDEFKKDSSVFILGNTDRPDASAVYLHDFQRFLIHEQQEHWAQDLNKVRERMTKFIDDTMRETAEPFLFVDEFLTYLFSRENSIWDEKYDAVDMQDMNNPLSHYWISSSHNTYLTGDQLRSESSPEAYIRCLRMGCRCIELDCWDGPDGKPVIYHGWTRTTKIKFDDVVQAIKDHAFVTSSFPVILSIEEHCSVEQQRHMAKAFKEVFGDLLLTKPTEASADQLPSPSQLREKIIIKHKKLGPRGDVDVNMEDKKDEHKQQGELYMWDSIDQKWTRHYCAIADAKLSFSDDIEQTMEEEVPQDIPPTELHFGEKWFHKKVEKRTSAEKLLQEYCMETGGKDGTFLVRESETFPNDYTLSFWRSGRVQHCRIRSTMEGGTLKYYLTDNLTFSSIYALIQHYRETHLRCAEFELRLTDPVPNPNPHESKPWYYDSLSRGEAEDMLMRIPRDGAFLIRKREGSDSYAITFRARGKVKHCRINRDGRHFVLGTSAYFESLVELVSYYEKHSLYRKMRLRYPVTPELLERYNMERDINSLYDVSRMYVDPSEINPSMPQRTVKALYDYKAKRSDELSFCRGALIHNVSKEPGGWWKGDYGTRIQQYFPSNYVEDISTADFEELEKQIIEDNPLGSLCRGILDLNTYNVVKAPQGKNQKSFVFILEPKQQGDPPVEFATDRVEELFEWFQSIREITWKIDTKENNMKYWEKNQSIAIELSDLVVYCKPTSKTKDNLENPDFREIRSFVETKADSIIRQKPVDLLKYNQKGLTRVYPKGQRVDSSNYDPFRLWLCGSQMVALNFQTADKYMQMNHALFSLNGRTGYVLQPESMRTEKYDPMPPESQRKILMTLTVKVLGARHLPKLGRSIACPFVEVEICGAEYDNNKFKTTVVNDNGLSPIWAPTQEKVTFEIYDPNLAFLRFVVYEEDMFSDPNFLAHATYPIKAVKSGFRSVPLKNGYSEDIELASLLVFCEMRPVLESEEELYSSCRQLRRRQEELNNQLFLYDTHQNLRNANRDALVKEFSVNENQLQLYQEKCNKRLREKRVSNSKFYS
With B1, the values for the binding entry in test [1], in test [2] and in test [3] were “no binding”, “binds” and “binds”, respectively.

B2: PLCγ1 (enzyme, UniProt P19174 1-1290)
chain: MAGAASPCANGCGPGAPSDAEVLHLCRSLEVGTVMTLFYSKKSQRPERKTFQVKLETRQITWSRGADKIEGAIDIREIKEIRPGKTSRDFDRYQEDPAFRPDQSHCFVILYGMEFRLKTLSLQATSEDEVNMWIKGLTWLMEDTLQAPTPLQIERWLRKQFYSVDRNREDRISAKDLKNMLSQVNYRVPNMRFLRERLTDLEQRSGDITYGQFAQLYRSLMYSAQKTMDLPFLEASTLRAGERPELCRVSLPEFQQFLLDYQGELWAVDRLQVQEFMLSFLRDPLREIEEPYFFLDEFVTFLFSKENSVWNSQLDAVCPDTMNNPLSHYWISSSHNTYLTGDQFSSESSLEAYARCLRMGCRCIELDCWDGPDGMPVIYHGHTLTTKIKFSDVLHTIKEHAFVASEYPVILSIEDHCSIAQQRNMAQYFKKVLGDTLLTKPVEISADGLPSPNQLKRKILIKHKKLAEGSAYEEVPTSMMYSENDISNSIKNGILYLEDPVNHEWYPHYFVLTSSKIYYSEETSSDQGNEDEEEPKEVSSSTELHSNEKWFHGKLGAGRDGRHIAERLLTEYCIETGAPDGSFLVRESETFVGDYTLSFWRNGKVQHCRIHSRQDAGTPKFFLTDNLVFDSLYDLITHYQQVPLRCNEFEMRLSEPVPQTNAHESKEWYHASLTRAQAEHMLMRVPRDGAFLVRKRNEPNSYAISFRAEGKIKHCRVQQEGQTVMLGNSEFDSLVDLISYYEKHPLYRKMKLRYPINEEALEKIGTAEPDYGALYEGRNPGFYVEANPMPTFKCAVKALFDYKAQREDELTFIKSAIIQNVEKQEGGWWRGDYGGKKQLWFPSNYVEEMVNPVALEPEREHLDENSPLGDLLRGVLDVPACQIAIRPEGKNNRLFVFSISMASVAHWSLDVAADSQEELQDWVKKIREVAQTADARLTEGKIMERRKKIALELSELVVYCRPVPFDEEKIGTERACYRDMSSFPETKAEKYVNKAKGKKFLQYNRLQLSRIYPKGQRLDSSNYDPLPMWICGSQLVALNFQTPDKPMQMNQALFMTGRHCGYVLQPSTMRDEAFDPFDKSSLRGLEPCAISIEVLGARHLPKNGRGIVCPFVEIEVAGAEYDSTKQKTEFVVDNGLNPVWPAKPFHFQISNPEFAFLRFVVYEEDMFSDQNFLAQATFPVKGLKTGYRAVPLKNNYSEDLELASLLIKIDIFPAKENGDLSPFSGTSLRERGSDASGQLFHGRAREGSFESRYQQPFEDFRISQEHLADHFDSRERRAPRRTRVNGDNRL
Regarding B2, the binding entry in test [1] was “no binding”; in test [2], “binds”; in test [3], “binds”.

B3: B cell adapter for phosphoinositide 3-kinase (BCAP) (protein, UniProt Q6ZUJ8 1-805)
chain: MAASGVPRGCDILIVYSPDAEEWCQYLQTLFLSSRQVRSQKILTHRLGPEASFSAEDLSLFLSTRCVVVLLSAELVQHFHKPALLPLLQRAFHPPHRVVRLLCGVRDSEEFLDFFPDWAHWQELTCDDEPETYVAAVKKAISEDSGCDSVTDTEPEDEKVVSYSKQQNLPTVTSPGNLMVVQPDRIRCGAETTVYVIVRCKLDDRVATEAEFSPEDSPSVRMEAKVENEYTISVKAPNLSSGNVSLKIYSGDLVVCETVISYYTDMEEIGNLLSNAANPVEFMCQAFKIVPYNTETLDKLLTESLKNNIPASGLHLFGINQLEEEDMMTNQRDEELPTLLHFAAKYGLKNLTALLLTCPGALQAYSVANKHGHYPNTIAEKHGFRDLRQFIDEYVETVDMLKSHIKEELMHGEEADAVYESMAHLSTDLLMKCSLNPGCDEDLYESMAAFVPAATEDLYVEMLQASTSNPIPGDGFSRATKDSMIRKFLEGNSMGMTNLERDQCHLGQEEDVYHTVDDDEAFSVDLASRPPVPVPRPETTAPGAHQLPDNEPYIFKVFAEKSQERPGNFYVSSESIRKGPPVRPWRDRPQSSIYDPFAGMKTPGQRQLITLQEQVKLGIVNVDEAVLHFKEWQLNQKKRSESFRFQQENLKRLRDSITRRQREKQKSGKQTDLEITVPIRHSQHLPAKVEFGVYESGPRKSVIPPRTELRRGDWKTDSTSSTASSTSNRSSTRSLLSVSSGMEGDNEDNEVPEVTRSRSPGPPQVDGTPTMSLERPPRVPPRAASQRPPTRETFHPPPPVPPRGR
As for B3, the binding result in test [1] is on record as “no binding”; in test [3], “binds”.
